According to patent US20220172420A1:

Target: human epidermal growth factor receptor 3 (HER3) (human), P21860
Test: flow cytometry on HCC1569 cells, PE-labelled anti-human secondary antibody, one-site specific binding fit

B1: Antibody-drug conjugate (10) (antibody, human IgG1, kappa)
heavy: QVQLQQWGAGLLKPSETLSLTCAVYGGSFSGYYWSWIRQPPGKGLEWIGEINHSGSTNYNPSLKSRVTISVETSKNQFSLKLSSVTAADTAVYYCARDKWTWYFDLWGRGTLVTVSSASTKGPSVFPLAPSSKSTSGGTAALGCLVKDYFPEPVTVSWNSGALTSGVHTFPAVLQSSGLYSLSSVVTVPSSSLGTQTYICNVNHKPSNTKVDKRV[… human IgG1 Fc …]
light: [… about 200 residues …]
modifications: may carry the same drug-linker on a cysteine (L chain bound to one drug molecule); position not stated; exatecan drug-linker -(Succinimid-3-yl-N)-CH2CH2-C(=O)-NH-CH2CH2-O-CH2CH2-O-CH2CH2-C(=O)-GGFG-NH-CH2CH2CH2-C(=O)-(NH-DX), joined by thioether bonds to cysteines freed by reducing the hinge disulfide bonds; average 6.2 (procedure E) or 6.4 (procedure F) drug molecules per antibody; …
Bmax: 28800
Kd: 1.55 nM
